Laboratory results reported in the supplement of paper PMC4967469.

What was measured:
Experiment in all cases: Viability of human cancer cell lines after 72 h of drug (GDSC screen)
[1] = compound: CO[C@H]1C[C@@H]2CC[C@@H](C)[C@@](O)(O2)C(=O)C(=O)N2CCCC[C@H]2C(=O)O[C@H]([C@H](C)C[C@@H]2CC[C@@H](OC(=O)C(C)(CO)CO)[C@H](OC)C2)CC(=O)[C@H](C)/C=C(\C)[C@@H](O)[C@@H](OC)C(=O)[C@H](C)C[C@H](C)/C=C/C=C/C=C/1C [Temsirolimus]; conditions: top dose 0.2 µM
Protocol: (§1)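 Human cancer cell lines in 384-well plates, medium with 10% serum, drug for 72 h over a 256-fold dose range (nine 2-fold or five 4-fold steps up to the top dose). Adherent lines were fixed and stained with the nucleic acid dye Syto60, suspension lines read with resazurin; signal relative to control wells, capped at 0 and 100%. One two-parameter sigmoid per drug and line, fitted in a mixed model over all curves with the slope shared within a line.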

[2] = compound: CC(=O)O[C@@H]1[C@@H](OC(C)=O)[C@@H](O)[C@H](Oc2c(-c3ccc(O)cc3)oc3cc(O)cc(O)c3c2=O)O[C@H]1C [SL 0101-1]; conditions: top dose 10 µM; top dose inferred
Protocol: as §1

[3] = compound: C=CC(=O)Nc1ccc(C(=O)c2sc(Nc3ccc(N4CCN(C)CC4)cc3OC)nc2N)cc1 [XMD15-27]; conditions: top dose 10.24 µM; top dose inferred
Protocol: as §1

Cell Line	AUC [1]	IC50 [1] [µM]	AUC [2]	IC50 [2] [µM]	AUC [3]	IC50 [3] [µM]
DEL (lymphoid neoplasm, suspension)	0.991	> 0.2	0.994	> 10	0.868	6.22
DG-75 (Burkitt lymphoma, suspension)	0.435	0.00827	0.902	> 10	0.987	> 10.2
DJM-1 (skin, adherent)	0.961	> 0.2	0.983	> 10	0.989	> 10.2
DK-MG (glioma, adherent)	0.839	> 0.2	0.97	> 10	0.862	> 10.2
DMS-79 (small cell lung carcinoma, suspension)	0.961	> 0.2	0.985	> 10	0.983	> 10.2
DMS-114 (small cell lung carcinoma, adherent)	0.705	0.0521	0.98	> 10	0.981	> 10.2
DMS-273 (small cell lung carcinoma, adherent)	0.915	> 0.2	0.952	> 10	0.985	> 10.2
DND-41 (T-cell leukaemia, suspension)	0.903	> 0.2	0.979	> 10	0.944	> 10.2
DOK (head and neck, adherent)	0.626	0.0331	0.904	> 10	0.976	> 10.2
DOV13 (ovary, adherent)	0.715	0.0563	0.982	> 10	0.983	> 10.2
DSH1 (bladder, adherent)	0.871	0.175	0.97	> 10	0.98	> 10.2
DU-145 (prostate, adherent)	0.907	> 0.2	0.944	> 10	0.984	> 10.2
DU-4475 (breast, suspension)	0.728	0.048	0.962	> 10	0.992	> 10.2
Daudi (Burkitt lymphoma, suspension)	0.968	> 0.2	0.987	> 10	0.991	> 10.2
Detroit562 (head and neck, adherent)	0.831	0.12	0.977	> 10	0.988	> 10.2
DoTc2-4510 (cervix, adherent)	0.928	> 0.2	0.988	> 10	0.989	> 10.2
EB2 (Burkitt lymphoma, suspension)	0.987	> 0.2	0.99	> 10	0.963	> 10.2
EB-3 (Burkitt lymphoma, suspension)	0.948	> 0.2	0.984	> 10	0.98	> 10.2
EBC-1 (lung squamous cell carcinoma, adherent)	0.686	0.0446	0.978	> 10	0.981	> 10.2
EC-GI-10 (oesophagus, adherent)	0.861	0.166	0.975	> 10	0.989	> 10.2
ECC10 (stomach, suspension)	0.914	> 0.2	0.94	> 10	0.917	> 10.2
EFM-192A (breast, adherent)	0.72	0.0568	0.976	> 10	0.985	> 10.2
EFO-21 (ovary, adherent)	0.941	> 0.2	0.969	> 10	0.971	> 10.2
EFO-27 (ovary, adherent)	0.557	0.0186	0.967	> 10	0.98	> 10.2
EGI-1 (biliary tract, adherent)	0.545	0.0172	0.92	> 10	0.982	> 10.2

Cell Line	AUC [1]	IC50 [1] [µM]	AUC [2]	IC50 [2] [µM]	AUC [3]	IC50 [3] [µM]
EJM (lymphoid neoplasm, semi-adherent)	0.89	0.167	0.988	> 10	0.985	> 10.2
EKVX (lung adenocarcinoma, adherent)	0.725	0.118	0.961	> 10	0.966	> 10.2
EM-2 (chronic myeloid leukaemia, suspension)	0.76	0.0792	0.982	> 10	0.977	> 10.2
EMC-BAC-1 (lung adenocarcinoma, adherent)	0.825	0.143	0.975	> 10	0.909	> 10.2
EMC-BAC-2 (lung adenocarcinoma, adherent)	0.549	0.0174	0.982	> 10	0.957	> 10.2
EN (endometrium, adherent)	0.861	> 0.2	0.984	> 10	0.984	> 10.2
ES1 (Ewing sarcoma, adherent)	0.619	0.0265	0.983	> 10	0.983	> 10.2
ES4 (Ewing sarcoma, adherent)	0.58	0.0214	0.956	> 10	0.959	> 10.2
ES5 (Ewing sarcoma, adherent)	0.632	0.0307	0.966	> 10	0.983	> 10.2
ES6 (Ewing sarcoma, adherent)	0.711	0.0577	0.982	> 10	0.961	> 10.2
ES7 (Ewing sarcoma, adherent)	0.726	0.0558	0.98	> 10	0.942	> 10.2
ES8 (Ewing sarcoma, adherent)	0.456	0.00957	0.985	> 10	0.963	> 10.2
ES-2 (ovary, adherent)	0.891	0.183	0.991	> 10	0.991	> 10.2
ESO26 (oesophagus, adherent)	0.872	0.172	0.982	> 10	0.912	> 10.2
ESO51 (oesophagus, semi-adherent)	0.754	0.094	0.939	> 10	0.963	> 10.2
ESS-1 (endometrium, adherent)	0.857	0.137	0.976	> 10	0.973	> 10.2
ETK-1 (biliary tract, adherent)	0.555	0.0181	0.983	> 10	0.973	> 10.2
EVSA-T (breast, adherent)	0.815	0.0906	0.991	> 10	0.991	> 10.2
EW-1 (Ewing sarcoma, semi-adherent)	0.82	0.103	0.983	> 10	0.946	> 10.2
EW-3 (Ewing sarcoma, adherent)	0.779	0.0941	0.984	> 10	0.958	> 10.2
EW-7 (Ewing sarcoma, semi-adherent)	0.853	0.127	0.977	> 10	0.979	> 10.2
EW-11 (Ewing sarcoma, adherent)	0.497	0.0123	0.966	> 10	0.968	> 10.2
EW-13 (Ewing sarcoma, suspension)	0.8	0.109	0.985	> 10	0.98	> 10.2
EW-16 (Ewing sarcoma, adherent)	0.537	0.0159	0.942	> 10	0.977	> 10.2
EW-18 (Ewing sarcoma, suspension)	0.794	0.0995	0.958	> 10	0.971	> 10.2

Cell Line	AUC [1]	IC50 [1] [µM]	AUC [2]	IC50 [2] [µM]	AUC [3]	IC50 [3] [µM]
EW-24 (Ewing sarcoma, semi-adherent)	0.956	> 0.2	0.99	> 10	0.993	> 10.2
EoL-1-cell (haematopoietic neoplasm, suspension)	0.815	0.0943	0.972	> 10	0.973	> 10.2
FADU (head and neck, adherent)	0.885	> 0.2	0.979	> 10	0.982	> 10.2
FLO-1 (oesophagus, adherent)	0.852	> 0.2	0.977	> 10	0.942	> 10.2
FTC-133 (thyroid, adherent)	0.606	0.0252	0.981	> 10	0.985	> 10.2
FU97 (stomach, adherent)	0.663	0.0359	0.986	> 10	0.98	> 10.2
FU-OV-1 (ovary, adherent)	0.905	> 0.2	0.959	> 10	0.978	> 10.2
Farage (B-cell lymphoma, suspension)	0.337	0.00483	0.992	> 10	0.987	> 10.2
G-292 Clone A141B1 (osteosarcoma, adherent)	0.786	0.15	0.949	> 10	0.933	> 10.2
G-361 (melanoma, adherent)	0.787	0.0829	0.988	> 10	0.973	> 10.2
G-401 (kidney, adherent)	0.68	0.0419	0.981	> 10	0.965	> 10.2
G-402 (soft tissue, adherent)	0.461	0.00943	0.947	> 10	0.944	> 10.2
GAK (melanoma, adherent)	0.941	> 0.2	0.989	> 10	0.989	> 10.2
GB-1 (glioma, adherent)	0.864	> 0.2	0.972	> 10	0.979	> 10.2
GCIY (stomach, adherent)	0.864	> 0.2	0.977	> 10	0.984	> 10.2
GDM-1 (acute myeloid leukaemia, suspension)	0.986	> 0.2	0.987	> 10	0.911	> 10.2
GI-1 (glioma, adherent)	0.744	0.0601	0.977	> 10	0.987	> 10.2
GI-ME-N (neuroblastoma, adherent)	0.761	0.0961	0.977	> 10	0.923	> 10.2
GMS-10 (glioma, adherent)	0.871	0.187	0.984	> 10	0.988	> 10.2
GOTO (neuroblastoma, adherent)	0.922	> 0.2	0.969	> 10	0.983	> 10.2
GR-ST (lymphoblastic leukaemia, suspension)	0.585	0.0225	0.969	> 10	0.945	> 10.2
GRANTA-519 (B-cell lymphoma, suspension)	0.824	0.103	0.991	> 10	0.991	> 10.2
GT3TKB (stomach, adherent)	0.871	0.152	0.979	> 10	0.989	> 10.2

A lower IC50 marks a more sensitive line; where the fit passes the top or lowest dose, that dose stands as a limit. For AUC the same curve is integrated over the 256-fold range of doses and scaled to a fraction; values near 1 show little effect. For part of these data: Where the top dose is marked as inferred, it was calculated from the reported fits.
